B1: CPEB3 Ribozyme (parent)
chain: UAACAGGGGGCCACAGCAGAAGCGUUCACGUCGCAGCCCCUGUCAGAUUCUGGUGAAUCUGCGAAUUCUGCUGUAUAUCUC

Read counts are not given, so values of variants with three or more changes are uncertain.

These results are taken from the RNAGym collection of RNA variant scans (doi:10.1093/nar/gkz1192).

Variants of B1 are the subject of the series. The experiment in a line: self-cleavage, relative activity (ratio to wild type); higher = more cleavage; in vitro, sequencing. The gist of the method:
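Barcoded CPEB3 ribozyme mutants, produced by rounds of error-prone PCR, self-cleaved while being transcribed with T7 RNA polymerase for 5 hours at 37°C and during a subsequent 15 min DNase I step before EDTA was added. Sequencing of template-switched cDNA on Illumina gave cleaved and total reads, and DNA sequencing assigned barcodes to variants. Each variant's relative activity is its cleaved/total read fraction divided by the unmutated ribozyme's fraction, averaged across three batches. A variant needed a minimum of 5 reads.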
With A15U U31A U48C U72C, the self-cleavage was 0.29.
The result for C17G U67C C81G reads 0.16.
For G16A A56U A65C C68U U69A the value was 0.07; for C17G G30U A35G, 0.2; for G16A A35U A56U U58C U78C, 0.05.
Consider G16A A35U U49C A65G, for which the self-cleavage is 0.06.
For A15U U31A A47U U58C A64U the value was 0.04; for A15U U31A C34G A35U U54C A64G U67C, 0.1; for G16A U67C A75C, 0.13.
Regarding G16U A21G C38A U41C A57G, the self-cleavage came out at 0.05.
The result for G16C C23U A28G reads 0.23; that for C17U C34G C81G, 0.29.
For A15U U31C A35C the value was 0.36.
The result for G16U A18G G24A A28U U51C U69C A77C reads 0.05; that for C17G A20G U26C G53A U60C, 0.25; that for A15U U26C U60C U67C C68G U78C, 0.06.
Regarding G16U C34U U43C A56U U58C U67C, the self-cleavage worked out at 0.07.
Take A15U U43C U49C A56G U58C U78G: the self-cleavage was found to be 0.18.
The result for C17U G19U U60A reads 0.12; that for C17U A20C A28G A47C U49C U51C U80C, 0.04.
For G16U A20U A56U U60C A65U U69A U80A the value was 0.02.
Consider G16U U43A A64G, for which the self-cleavage was found to be 0.13.
The result for C17G A64G C71G G73A reads 0.13.
The result for A15U U54C A56U reads 0.14; that for C17U A35U A56G U58C, 0.23; that for C17A A35G C68A, 0.38.
The result for C17G A47G A56G reads 0.3; that for G16A C37U U54A U80A, 0.68.
C17G C23A U26G: the self-cleavage was determined as 0.22.
For C17A A28U C62G the value was 0.08; for A15U U51C U72C, 0.83.
C17G G33A U48C A56G U78C: the self-cleavage turned out to be 0.06.
For the variant G16A U25C U80C, the self-cleavage was found to be 0.21.
The result for C17U A21G U43C U74G U80C reads 0.41; that for G16U U25C U31C U66C U72A U80C, 0.05; that for A15U U48C A57G U69C, 0.09.
The result for C17G A18U U25A U72A A77U reads 0.07.
The result for A15U U69A U80A reads 0.14; that for C17U A18G U80C, 0.45.
Take C17A C38A A57G A64G C71G G73A: the self-cleavage stood at 0.04.
The result for G16C C62A U69C A75U A77U U78A reads 0.11; that for A15U U41C A45G A65G U67C U69C, 0.12; that for C17U A35U A45U, 0.17.
For the variant C17G U25G U26C A35G U67C, the self-cleavage is 0.13.
The result for C17U A20U A45U A64G reads 0.07; that for C17U A20G C38A U41G U43A, 0.13.
A15U U60C U66C: the self-cleavage was 0.14.
For C17A A28G A45U the value was 0.19.
For C17U A20U U31C A77G the value was 0.36; for C17U A47G G70C U78C, 0.17.
For C17G A21U U43A U78C the value was 0.33; for G16A A20G G36U U48C U66G, 0.12.
Consider G16U U26C U66A, for which the self-cleavage stood at 0.07.
For C17U A28G A45G U69A the value was 0.4; for A15U U51C U66A A75U U78C, 0.13.
The result for A15U U54C U60C A77G reads 0.36; that for A15U U26C C32U U60C, 0.08; that for C17U A18G U31C G46U U49C U66C, 0.06.
The result for A15U U26C U66A G73A reads 0.5.
Take G16U U31C U41C A57G U78C: the self-cleavage amounted to 0.13.
For G16C A21G A56U U72C U80C the value was 0.08.
The result for G16U U41A U58A U69C reads 0.08.
Regarding G16A C38U C62A G73A, the self-cleavage is 0.09.
The result for G16A U31C A56U A77G U80A reads 0.07; that for C17A U31C U58C, 0.09.
For the variant C17G A35U U54C U80C, the self-cleavage is 0.05.
For the variant C17G C29A U60A U69C, the self-cleavage was 0.08.
For G16A A20G C40U U49C U51A U54C the value was 0.11; for G16U U74A U80A, 1.02.
With C17U A20C U41C A45G U49A A64G U69C, the self-cleavage was found to be 0.02.
The result for G16A U67A U72A reads 0.1.
The result for G16C A47G A64C reads 0.16; that for A15U U41C U43C C71U, 0.16.
For G16A U43C A47U A57G U76C the value was 0.11; for G16A G24A C39A U49C U58C U72C, 0.05.
Take G16C A20G U54A A75G: the self-cleavage was 0.52.
G16U U41C A77G: the self-cleavage was found to be 0.36.
For C17U A20C A21G A65G the value was 0.05; for A15U U67A U76C, 0.35; for G16U C29U U48G U60C U80C, 0.29.
The result for A15U U49C U72C reads 0.14.
For A15U U49C U72A the value was 0.07.
Regarding C17U G19C C40A U54G A64G U72G, the self-cleavage is 0.03.
G16A A18G C62U U67A: the self-cleavage was found to be 0.18.
With A15U U26G A65U, the self-cleavage worked out at 0.36.
The result for C17U G19A U25C A35G U43C A56G reads 0.09; that for A15U U26C U49C U74C, 0.5.
In the case of C17U A28G U54C U67C A75G, the self-cleavage is 0.07.
For the variant C17U A20G U41C A65U, the self-cleavage came out at 0.4.
For C17G A35G A47G the value was 1.01.
The result for C17G A21G C29G U31C U69C reads 0.15.
The result for G16U C62U U78A reads 0.06; that for C17A U26A C50A U60C A77G U78C, 0.05; that for G16U C23A U26G U72A U76C, 0.05.
In the case of C17G A18C A20U C27U A28G A35G, the self-cleavage was found to be 0.03.
For G16C C27U U60C the value was 0.14; for G16U C32U G33A U67C, 0.09; for G16A U25C U31A, 0.06.
For C17U A45G A64U the value was 0.17; for A15U U26C U43C U69C A77G, 0.26.
The result for C17A U31C A35G U41C A64G U80A reads 0.15; that for G16C C23G A64G U76A, 0.17.
Regarding A15U U58C A65G U74A, the self-cleavage is 0.12.
Regarding A15U U54A A56G U69C, the self-cleavage is 0.16.
For the variant C17G U31C G33U U60A U72C, the self-cleavage amounted to 0.16.
For G16U A35G U43C U69A the value was 0.4; for G16U A35G U49C U69A, 0.18; for G16A A35U G46U, 0.35.
For C17U A45G U48C A64G the value was 0.15.
For C17A A18G U41G A47G the value was 0.09; for G16A U25C A45U U80A, 0.07.
For the variant G16A A28G U41A A45G U49C U69A U78C, the self-cleavage was 0.04.
Regarding G16A U31A U51A, the self-cleavage turned out to be 0.25.
The result for A15U U26C U54G G61A reads 0.2; that for C17U U26A C37U U41C U48C U76C, 0.09; that for C17A A20G U41C U51C U78C, 0.07.
The result for A15U U26C G30A U48C A64G U80C reads 0.13.
For C17U A28G C81G the value was 0.5; for C17G A56U U80C, 0.39.
Consider C17G A47G U48C, for which the self-cleavage was determined as 0.3.
For G16A G19U U43A A57G U72C the value was 0.08; for C17U A18U U51C U60A U66C, 0.18.
For C17G U26C A57G U58C the value was 0.25.
With G16A U49C G70U, the self-cleavage is 0.12.
For C17G A28U U67C, the self-cleavage amounted to 0.16.
For G16U C23A U48C A64G U69C the value was 0.06.
For A15U U41G U54C U76C the value was 0.11.
The result for G16A U26C U41A U80A reads 0.3; that for C17A U43C U49C U54C, 0.15; that for A15U U26G A57G U66A U78A, 0.09.
A15U U31G U48C A65U: the self-cleavage came to 0.07.
For C17U C29U A56G U66A the value was 0.08; for A15U U43C U54C, 0.17.
The result for G16U A35U C37A U41A U66C reads 0.18.
The result for C17U A28U A35U A56G reads 0.18; that for C17U A64G U72C, 0.25; that for C17U A18U U51C U72C, 0.11.
As for G16A C34U C37A U74C U80C, the self-cleavage came to 0.28.
In the case of G16U C27A U41A U51C U72C, the self-cleavage is 0.11.
For G16C U25C A28U U66C C71G U72A U80A the value was 0.06; for A15U U31C C32U, 0.13; for C17U A18U U51A U72C U76C, 0.24.
With G16A U31C U74C U78A, the self-cleavage amounted to 0.43.
The result for C17G C32U A56G reads 0.09; that for C17U A35U U43A, 0.56.
For A15U U51A A77G the value was 0.69; for C17G A18G C34U A45U, 0.07; for A15U U31C C79G, 0.72.
For the variant C17U A18U U48C U51C U72C, the self-cleavage stood at 0.11.
The result for C17U A21G A35U U72A reads 0.14.
With G16A A20G A28U U69A A75U, the self-cleavage was 0.08.
For C17U A35U A56U G73A the value was 0.33.
Turning to G16C A21U A28G C29U U31G U43C, the self-cleavage was 0.07.
The result for G16U U41A U49C A56U U80C reads 0.17; that for C17A U25G U26C C40A U48C A65G C81G, 0.07.
For G16U A45G A75G the value was 0.24.
For A15U U41C A64U the value was 0.3.
With A15U U54A U74A, the self-cleavage is 0.96.
The result for C17A U43C U49C U54C A75C reads 0.11.
Consider C17U C27U U31A C32A, for which the self-cleavage amounted to 0.23.
The result for C17G C34A G36U reads 0.05.
For A15U U43C U76C the value was 0.58; for G16C A21G U66G U78C, 0.21.
For A15U U41C U78C the value was 0.82; for A15U U31G U67C, 0.33.
As for C17A C34G C68G, the self-cleavage turned out to be 0.09.
For C17U A20G A21G U25C C44A C62U the value was 0.03.
